In the RNAGym collection of RNA variant scans (doi:10.1073/pnas.2313332121):
This sample is rich in variants without activity.

B1: TPR 5TU (parent)
chain: GGAUCUUCUCGAUCUAACAAAAAAGACAAAUCUGCCACAAAGCUUGAGAGCAUCUUCGGAUGCAGAGGCGGCAGCCUUCGGUGGCGCGAUAGCGCCAACGUUCUCAACUAUGACACGCAAAACGCGUGCUCCGUUGAAUGGAGUUUAUCAUG

Variants of: B1
Experiment: polymerase ribozyme fitness, log enrichment relative to wild type (log ratio); higher = more active; in vitro selection for triplet polymerase activity
How it was run: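 A single round of triplicate in vitro selection, including frozen incubation at −7 °C, was applied to PCR-built, transcribed mutant libraries of each subunit of a heterodimeric triplet polymerase ribozyme. Illumina sequencing of input and output libraries retained genotypes with ≥10 input reads and ≥1 read per output. Fitness is the base-2 logarithm of genotype enrichment divided by wild-type enrichment, from inverse-variance-weighted replicate averages.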
With A3G G11A C27A A49C G59C G84C G88U the “polymerase ribozyme fitness (log ratio)” value was at most -4.2.
With A3G G11C C87A A91U A137G the “polymerase ribozyme fitness (log ratio)” value was at most -4.2.
In the case of A3G G46C C54A U146C, the “polymerase ribozyme fitness (log ratio)” value is reported as -3.68.
For A3G G50C C76A A115U C131G, the “polymerase ribozyme fitness (log ratio)” value was at most -4.2.
For A3G G65A G67U G88U G136C U139C G143A, the “polymerase ribozyme fitness (log ratio)” value was at most -4.2.
For A3G G83A G86U C118U, the “polymerase ribozyme fitness (log ratio)” value was -3.29.
With A3G G84C the “polymerase ribozyme fitness (log ratio)” value was -1.98.
In the case of A3G G86A, the “polymerase ribozyme fitness (log ratio)” value is reported as -1.52.
In the case of A3G U4A C10U A30G C79A, the “polymerase ribozyme fitness (log ratio)” value is reported as at most -4.2.
In the case of A3G U4A U53C G59U U61A G71C C85A, the “polymerase ribozyme fitness (log ratio)” value is reported as at most -4.2.
In the case of A3G U33G U53A G58A C79U C85G U101G, the “polymerase ribozyme fitness (log ratio)” value is reported as at most -4.2.
In the case of A3G U45G U56A G80A C85A C116G U144C, the “polymerase ribozyme fitness (log ratio)” value is reported as at most -4.2.
For A3U A16G G34U C57A C76A C87A, the “polymerase ribozyme fitness (log ratio)” value was at most -4.2.
In the case of A3U A16U C54U U55A C85U A98C C99U C129G, the “polymerase ribozyme fitness (log ratio)” value is reported as at most -4.2.
In the case of A3U A17C A89U C132U, the “polymerase ribozyme fitness (log ratio)” value is reported as -1.09.
For A3U A17U A19G G68A, the “polymerase ribozyme fitness (log ratio)” value was at most -4.2.
For A3U A17U A21G U53G G84U G88A U145G, the “polymerase ribozyme fitness (log ratio)” value was at most -4.2.
With A3U A19U C57U G62U C69U C85U C99G U130C G136U U146G the “polymerase ribozyme fitness (log ratio)” value was at most -4.2.
For A3U A20C A22C A26U A37G G84C A98C C118U C123U C132U, the “polymerase ribozyme fitness (log ratio)” value was at most -4.2.
In the case of A3U A20C C27U A41C C69G U90C C105G, the “polymerase ribozyme fitness (log ratio)” value is reported as at most -4.2.
In the case of A3U A20C G58C A73U G81A A147C, the “polymerase ribozyme fitness (log ratio)” value is reported as at most -4.2.
With A3U A20G A30G C57A A142C the “polymerase ribozyme fitness (log ratio)” value was at most -4.2.
In the case of A3U A20G A30U U45G C54A G59A C85A C114A, the “polymerase ribozyme fitness (log ratio)” value is reported as at most -4.2.
For A3U A20U C32A A66C G83U C96U U144C, the “polymerase ribozyme fitness (log ratio)” value was at most -4.2.
For A3U A21C C69A C76A G86A A89G A122G, the “polymerase ribozyme fitness (log ratio)” value was at most -4.2.
For A3U A21U C27A U44A A89G G94A A98U, the “polymerase ribozyme fitness (log ratio)” value was at most -4.2.
With A3U A22C U31C U61A the “polymerase ribozyme fitness (log ratio)” value was -2.45.
For A3U A23G U56A C75U A89U, the “polymerase ribozyme fitness (log ratio)” value was at most -4.2.
For A3U A24G C32G, the “polymerase ribozyme fitness (log ratio)” value was -4.15.
With A3U A28U A41C A73U C79G G88A the “polymerase ribozyme fitness (log ratio)” value was at most -4.2.
With A3U A29C U61C the “polymerase ribozyme fitness (log ratio)” value was at most -4.2.
In the case of A3U A30G A47C C87U A113G C118G, the “polymerase ribozyme fitness (log ratio)” value is reported as at most -4.2.
For A3U A30G U104C C105A C114G A115G A122G C129A, the “polymerase ribozyme fitness (log ratio)” value was at most -4.2.
With A3U A40C U45A G62A G136C the “polymerase ribozyme fitness (log ratio)” value was at most -4.2.
In the case of A3U A47C C51U U55A C87A C116G C132G, the “polymerase ribozyme fitness (log ratio)” value is reported as at most -4.2.
In the case of A3U A47C C57A, the “polymerase ribozyme fitness (log ratio)” value is reported as -0.307.
With A3U A52C G58A G81A U109G U127C the “polymerase ribozyme fitness (log ratio)” value was at most -4.2.
For A3U A91U, the “polymerase ribozyme fitness (log ratio)” value was at most -4.2.
With A3U C5A A39U A49U G59A G84A C103U U127C U139A the “polymerase ribozyme fitness (log ratio)” value was at most -4.2.
With A3U C5A U15C A19G C57G C118G G136A G141C A142C the “polymerase ribozyme fitness (log ratio)” value was at most -4.2.
With A3U C5G C14U U44G G50C G74A C95G A97G A119G the “polymerase ribozyme fitness (log ratio)” value was at most -4.2.
For A3U C5G U13G G71U G88U A142G, the “polymerase ribozyme fitness (log ratio)” value was at most -4.2.
With A3U C8A A12G A28U C54U C75G C76G C95U the “polymerase ribozyme fitness (log ratio)” value was at most -4.2.
In the case of A3U C8G C10U U31A U56G A73G C76A C93A A119C G140A, the “polymerase ribozyme fitness (log ratio)” value is reported as at most -4.2.
In the case of A3U C8U C14G A19C U33A A52C G70A C79G C87G G152U, the “polymerase ribozyme fitness (log ratio)” value is reported as at most -4.2.
With A3U C10A C14U C85G A97U the “polymerase ribozyme fitness (log ratio)” value was at most -4.2.
In the case of A3U C10U U56A C96U C116U G143A, the “polymerase ribozyme fitness (log ratio)” value is reported as -3.56.
In the case of A3U C14G U31C A52U G92C, the “polymerase ribozyme fitness (log ratio)” value is reported as at most -4.2.
For A3U C14U A23G A29G A37U U53A C54A A91U C105G A113U, the “polymerase ribozyme fitness (log ratio)” value was at most -4.2.
In the case of A3U C18U A24U G48U A73G C85U U104G, the “polymerase ribozyme fitness (log ratio)” value is reported as at most -4.2.
For A3U C27U C38U C51G A73U C85U C93A C105A G140U, the “polymerase ribozyme fitness (log ratio)” value was at most -4.2.
For A3U C35A C118G G141C, the “polymerase ribozyme fitness (log ratio)” value was at most -4.2.
With A3U C35A G83A U148G the “polymerase ribozyme fitness (log ratio)” value was at most -4.2.
With A3U C35G C93U G100A C105G G133C the “polymerase ribozyme fitness (log ratio)” value was at most -4.2.
With A3U C36A A40C G94A the “polymerase ribozyme fitness (log ratio)” value was at most -4.2.
For A3U C43A C57A G92A A138G G141U, the “polymerase ribozyme fitness (log ratio)” value was at most -4.2.
For A3U C79A A91G, the “polymerase ribozyme fitness (log ratio)” value was at most -4.2.
For A3U C85G C93G G136A A142C, the “polymerase ribozyme fitness (log ratio)” value was at most -4.2.
For A3U C87G A113C, the “polymerase ribozyme fitness (log ratio)” value was -4.19.
For A3U C93A, the “polymerase ribozyme fitness (log ratio)” value was -2.19.
In the case of A3U C96G, the “polymerase ribozyme fitness (log ratio)” value is reported as -1.47.
With A3U G25C A64C U78G A91U the “polymerase ribozyme fitness (log ratio)” value was at most -4.2.
In the case of A3U G25C C32G A37C U56C G68C G74A C87U A142C, the “polymerase ribozyme fitness (log ratio)” value is reported as at most -4.2.
With A3U G34A A49G A89U C95U U102A U148A the “polymerase ribozyme fitness (log ratio)” value was at most -4.2.
In the case of A3U G46A A113U, the “polymerase ribozyme fitness (log ratio)” value is reported as -3.1.
In the case of A3U G50U C95G A142C U148A, the “polymerase ribozyme fitness (log ratio)” value is reported as at most -4.2.
In the case of A3U G59U U82A C93A A142C, the “polymerase ribozyme fitness (log ratio)” value is reported as at most -4.2.
For A3U G62U G94A, the “polymerase ribozyme fitness (log ratio)” value was -1.08.
For A3U G65A C85A, the “polymerase ribozyme fitness (log ratio)” value was -3.12.
In the case of A3U G67U A91G C99U G124U, the “polymerase ribozyme fitness (log ratio)” value is reported as at most -4.2.
In the case of A3U G83C, the “polymerase ribozyme fitness (log ratio)” value is reported as -0.632.
In the case of A3U G84A, the “polymerase ribozyme fitness (log ratio)” value is reported as -1.14.
With A3U U4G U55A A119C the “polymerase ribozyme fitness (log ratio)” value was -1.29.
In the case of A3U U6A A39G C96G G124U G141A, the “polymerase ribozyme fitness (log ratio)” value is reported as -3.93.
For A3U U6G C57G C87U C149G, the “polymerase ribozyme fitness (log ratio)” value was at most -4.2.
In the case of A3U U7A C8A C63U U90G, the “polymerase ribozyme fitness (log ratio)” value is reported as at most -4.2.
With A3U U7A U53A G83C C105G the “polymerase ribozyme fitness (log ratio)” value was at most -4.2.
With A3U U9C A24U A39U A52C A107G the “polymerase ribozyme fitness (log ratio)” value was at most -4.2.
In the case of A3U U9G A30U C54G C87G U90A C96G U134G, the “polymerase ribozyme fitness (log ratio)” value is reported as at most -4.2.
For A3U U31A A49C G68U G92A C95G A137C, the “polymerase ribozyme fitness (log ratio)” value was at most -4.2.
In the case of A3U U33G C57U C95A C105U A119C, the “polymerase ribozyme fitness (log ratio)” value is reported as at most -4.2.
For A3U U45G C69A G92U A115G, the “polymerase ribozyme fitness (log ratio)” value was at most -4.2.
In the case of A3U U53A, the “polymerase ribozyme fitness (log ratio)” value is reported as -1.77.
In the case of A3U U53G G68U C85U C108U C118A G124A, the “polymerase ribozyme fitness (log ratio)” value is reported as at most -4.2.
